Reference: patent US20180273604A1 (ALBERT EINSTEIN COLLEGE OF MEDICINE, published 2018)

T1: ICOS-L, human, expressed on HEK 293 cells (human, UniProt O75144 19-302)
T1 construct: whole, on cells; Expressed as GFP or mCherry fusion; Library form: ectodomain on the mouse PD-L1 transmembrane segment with GFP; also called Human ICOS-L
T1 sequence (looked up): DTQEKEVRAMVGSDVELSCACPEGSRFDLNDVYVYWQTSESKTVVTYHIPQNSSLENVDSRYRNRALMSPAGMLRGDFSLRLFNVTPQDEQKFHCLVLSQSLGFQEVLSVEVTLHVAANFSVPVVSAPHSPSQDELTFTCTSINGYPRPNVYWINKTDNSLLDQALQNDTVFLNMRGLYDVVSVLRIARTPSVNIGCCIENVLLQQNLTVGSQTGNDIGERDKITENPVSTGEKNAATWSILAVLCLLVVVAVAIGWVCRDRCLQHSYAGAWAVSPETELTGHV

T2: ICOS-L Fc-fusion protein (soluble, purified) (human, UniProt O75144 19-256, limits assumed)
T2 construct: Expressed in HEK 293 cells, purified by Ni2+-NTA and gel filtration; Used soluble or on protein A microbeads; also called ICOS-L Fc (IgG2a); ICOS-L mIgG2a
T2 sequence (looked up): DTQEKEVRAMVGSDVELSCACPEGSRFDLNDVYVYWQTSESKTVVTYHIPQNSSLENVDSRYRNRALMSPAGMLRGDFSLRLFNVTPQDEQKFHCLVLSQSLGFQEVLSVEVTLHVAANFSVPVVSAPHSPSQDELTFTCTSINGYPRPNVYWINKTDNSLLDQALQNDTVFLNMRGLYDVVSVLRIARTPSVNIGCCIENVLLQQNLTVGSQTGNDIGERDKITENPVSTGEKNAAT


Key:
[1] = molecular target: T1, ICOS-L, human, expressed on HEK 293 …; experiment: cell-cell FACS screen, ICOS-L query cells vs GFP library cells
[2] = molecular target: T2, ICOS-L Fc-fusion protein (soluble, …); experiment: competition: ICOS-L-coated microbeads on CTLA-4 or CD28 cells with increasing ENBREL, flow cytometry

| binding result [1] | binding result [2] | Binder |
| --- | --- | --- |
| binds |  | CTLA-4, human, expressed on cells (receptor, whole, on cells; GFP fusion in the library (ectodomain on mouse PD-L1 transmembrane segment)) not shown |
|  | binds | ENBREL® (etanercept), fusion of TNFR-1B to IgG1 Fc (Fc fusion, Used soluble or coated on protein A microbeads; also called TNFR-1B Fc fusion; soluble TNFR-1B) LPAQVAFTPYAPEPGSTCRLREYYDQTAQMCCSKCSPGQHAKVFCTKTSDTVCDSCEDSTYTQLWNWVPECLSCGSRCSSDQVETQACTREQNRICTCRPGWYCALSKQEGCRLCAPLRKCRPGFGVARPGTETSDVVCKPCAPGTFSNTTSSTDICRPHQICNVVAIPGNASMDAVCTSTSPTRSMAPGAVHLPQPVSTRSQHTQPTPEPSTAPSTSFLLPMGPSPPAEGSTGD[… human IgG1 Fc …] |
| binds |  | CD28, human, expressed on cells (receptor, whole, on cells; GFP fusion in the library (ectodomain on mouse PD-L1 transmembrane segment)) not shown |
